Target: T1, Interleukin-10 (IL-10) (human, UniProt P22301 19-178)
T1 construct: Recombinant human IL-10 was used in the ELISA, and IL-10 at 40 ng/mL in the STAT3 assay; also called recombinant human IL-10; rhIL-10
Experiment: ELISA, immobilized IL-10

T1 sequence (P22301 19-178 limits assumed): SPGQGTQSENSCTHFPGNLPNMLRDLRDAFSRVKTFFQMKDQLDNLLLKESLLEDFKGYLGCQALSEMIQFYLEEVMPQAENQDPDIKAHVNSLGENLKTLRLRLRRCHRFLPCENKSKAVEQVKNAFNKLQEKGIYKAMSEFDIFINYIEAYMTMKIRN

binding result: binds
B1: recombinant tetravalent anti-IL-10 mini-antibody (antibody, human IgG4)
chain: EVQLVESGGGLVQPGGSLRLSCAASGFSFATYGVHWVRQSPGKGLEWLGVIWRGGSTDYSAAFMSRLTISKDNSKNTVYLQMNSLRAEDTAVYFCAKQAYGHYMDYWGQGTSVTVSSGGGGSGGGGSGGGGSDVVMTQSPLSLPVTLGQPASISCRSSQNIVHSNGNTYLEWYLQRPGQSPRLLIYKVSNRFSGVPDRFSGSGSGTDFTLKISRVEAEDVGVYYCFQGSHVPWTFGQGTKVEIKASVRSPP[left out - human IgG4 Fc]GSGGGTSGEVQLVESGGGLVQPGGSLRLSCAASGFSFATYGVHWVRQSPGKGLEWLGVIWRGGSTDYSAAFMSRLTISKDNSKNTVYLQMNSLRAEDTAVYFCAKQAYGHYMDYWGQGTSVTVSSGGGGSGGGGSGGGGSDVVMTQSPLSLPVTLGQPASISCRSSQNIVHSNGNTYLEWYLQRPGQSPRLLIYKVSNRFSGVPDRFSGSGSGTDFTLKISRVEAEDVGVYYCFQGSHVPWTFGQGTKVEIK
notes: Disulfide-linked homodimer of scFv(BT-063)-hinge-CH2-CH3 (human IgG4)-scFv(BT-063); also called tetravalent anti-IL-10 antibody

From patent publication US20210128615A1 (CHEMOTHERAPEUTISCHES FORSCHUNGSINSTITUT GEORG SPEYER HAUS, published 2021)
